Test results as given in paper PMC12613146.

Biological target: ectodomain of the epidermal growth factor receptor, EGFR25-645 (human)
Test: SPR; ligand ectodomain immobilised on streptavidin chips, DDM proteomicelles of the membrane protein injected; single-cycle kinetics, nine-point two-fold dilutions, 60 s association; 20 mM Tris-HCl, 300 mM KCl, 1 mg/ml BSA, 0.05% (v/v) Tween 20, 0.2% (w/v) DDM, pH 7.5

TGF-α(GGS)2tFhuA, sequence (chain): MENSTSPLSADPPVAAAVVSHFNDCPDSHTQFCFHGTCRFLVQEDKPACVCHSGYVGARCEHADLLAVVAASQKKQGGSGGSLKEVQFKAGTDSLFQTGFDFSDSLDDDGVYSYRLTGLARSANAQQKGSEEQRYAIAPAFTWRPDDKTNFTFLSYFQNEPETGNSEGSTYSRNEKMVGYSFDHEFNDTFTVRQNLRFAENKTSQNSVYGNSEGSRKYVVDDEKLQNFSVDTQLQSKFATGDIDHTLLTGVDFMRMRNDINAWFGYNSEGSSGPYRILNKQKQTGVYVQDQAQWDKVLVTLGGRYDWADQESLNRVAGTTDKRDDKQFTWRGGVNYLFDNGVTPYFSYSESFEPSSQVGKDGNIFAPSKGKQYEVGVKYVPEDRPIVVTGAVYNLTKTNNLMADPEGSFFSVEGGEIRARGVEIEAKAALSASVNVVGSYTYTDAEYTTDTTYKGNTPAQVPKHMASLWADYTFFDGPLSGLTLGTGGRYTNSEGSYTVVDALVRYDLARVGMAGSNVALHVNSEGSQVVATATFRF

Substance: TGF-α(GGS)2tFhuA
- Kd (individual measurement): 14.9 nM, 17.6 nM, 29.4 nM
- Kd (mean of replicate measurements): 20.6 nM

The source holds more than one record for some entries. The list is limited to them. The source may hold further records. For some assays here: Values given together seem to repeat one measurement; a mean can stand among them. Entries with a single value are a further part of the results.
